These are yes or no findings as the source states them, for the method shown. Some results given as binding are weak or reduced against the parent protein; the word gives no strength. Tags and fused reporters may be left off the sequences shown.
Columns and labels:
[1] = biological target: T1, FLAG-tagged full-length zyxin (FLAG-ZYX-full, aa 1–572) (human) (UniProt Q15942); experiment: pull-down; FLAG-ZYX-full or FLAG-ZYX-C bound to anti-FLAG M2 affinity gel mixed with purified His-ACTN1 or His-ACTN4, 2 h in IP buffer (20 mM Tris pH 7.4, 100 mM NaCl, 0.5% NP-40, 1 mM EDTA, 1 mM PMSF); bound ACTN detected by western blot with anti-pan-actinin antibody; both purified
T1 sequence: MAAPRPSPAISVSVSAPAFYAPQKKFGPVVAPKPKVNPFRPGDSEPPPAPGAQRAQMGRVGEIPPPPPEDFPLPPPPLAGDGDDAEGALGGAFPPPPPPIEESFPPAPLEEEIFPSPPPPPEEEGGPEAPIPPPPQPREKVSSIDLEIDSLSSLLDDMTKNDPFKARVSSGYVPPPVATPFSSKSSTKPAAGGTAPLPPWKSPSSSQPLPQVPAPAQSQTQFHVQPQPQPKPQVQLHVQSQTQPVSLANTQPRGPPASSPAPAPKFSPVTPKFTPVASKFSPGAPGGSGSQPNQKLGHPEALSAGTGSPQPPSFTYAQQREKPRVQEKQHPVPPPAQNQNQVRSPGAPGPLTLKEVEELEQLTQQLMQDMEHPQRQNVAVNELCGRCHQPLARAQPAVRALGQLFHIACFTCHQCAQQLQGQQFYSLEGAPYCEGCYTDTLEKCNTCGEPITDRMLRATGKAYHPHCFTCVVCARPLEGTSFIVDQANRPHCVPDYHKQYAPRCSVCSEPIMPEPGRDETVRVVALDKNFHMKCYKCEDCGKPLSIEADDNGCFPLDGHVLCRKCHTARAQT

Chains of the proteins cited; added tags and fusions are not shown.
UniProt O43707: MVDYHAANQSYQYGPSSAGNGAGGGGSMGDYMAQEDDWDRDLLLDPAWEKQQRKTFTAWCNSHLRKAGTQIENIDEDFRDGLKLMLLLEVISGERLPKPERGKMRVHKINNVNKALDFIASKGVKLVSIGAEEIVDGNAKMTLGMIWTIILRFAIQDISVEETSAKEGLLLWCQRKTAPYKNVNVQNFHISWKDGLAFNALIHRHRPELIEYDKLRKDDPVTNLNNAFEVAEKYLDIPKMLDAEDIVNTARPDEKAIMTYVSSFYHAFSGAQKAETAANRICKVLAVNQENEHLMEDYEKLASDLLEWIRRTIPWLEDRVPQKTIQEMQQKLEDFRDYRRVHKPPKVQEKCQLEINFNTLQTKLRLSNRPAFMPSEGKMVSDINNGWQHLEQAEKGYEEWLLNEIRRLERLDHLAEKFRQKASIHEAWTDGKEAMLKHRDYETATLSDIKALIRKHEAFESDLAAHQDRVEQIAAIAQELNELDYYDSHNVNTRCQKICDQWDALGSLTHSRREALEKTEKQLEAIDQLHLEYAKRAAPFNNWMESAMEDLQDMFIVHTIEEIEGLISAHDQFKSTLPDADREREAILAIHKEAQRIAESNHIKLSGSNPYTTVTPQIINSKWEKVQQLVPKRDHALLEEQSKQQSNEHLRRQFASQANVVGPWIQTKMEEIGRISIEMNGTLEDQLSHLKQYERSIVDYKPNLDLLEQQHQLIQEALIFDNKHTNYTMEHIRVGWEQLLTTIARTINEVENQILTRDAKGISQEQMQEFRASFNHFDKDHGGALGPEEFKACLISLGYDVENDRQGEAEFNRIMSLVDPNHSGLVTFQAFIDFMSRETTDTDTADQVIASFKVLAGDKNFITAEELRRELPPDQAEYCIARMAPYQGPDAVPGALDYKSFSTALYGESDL
UniProt P12814: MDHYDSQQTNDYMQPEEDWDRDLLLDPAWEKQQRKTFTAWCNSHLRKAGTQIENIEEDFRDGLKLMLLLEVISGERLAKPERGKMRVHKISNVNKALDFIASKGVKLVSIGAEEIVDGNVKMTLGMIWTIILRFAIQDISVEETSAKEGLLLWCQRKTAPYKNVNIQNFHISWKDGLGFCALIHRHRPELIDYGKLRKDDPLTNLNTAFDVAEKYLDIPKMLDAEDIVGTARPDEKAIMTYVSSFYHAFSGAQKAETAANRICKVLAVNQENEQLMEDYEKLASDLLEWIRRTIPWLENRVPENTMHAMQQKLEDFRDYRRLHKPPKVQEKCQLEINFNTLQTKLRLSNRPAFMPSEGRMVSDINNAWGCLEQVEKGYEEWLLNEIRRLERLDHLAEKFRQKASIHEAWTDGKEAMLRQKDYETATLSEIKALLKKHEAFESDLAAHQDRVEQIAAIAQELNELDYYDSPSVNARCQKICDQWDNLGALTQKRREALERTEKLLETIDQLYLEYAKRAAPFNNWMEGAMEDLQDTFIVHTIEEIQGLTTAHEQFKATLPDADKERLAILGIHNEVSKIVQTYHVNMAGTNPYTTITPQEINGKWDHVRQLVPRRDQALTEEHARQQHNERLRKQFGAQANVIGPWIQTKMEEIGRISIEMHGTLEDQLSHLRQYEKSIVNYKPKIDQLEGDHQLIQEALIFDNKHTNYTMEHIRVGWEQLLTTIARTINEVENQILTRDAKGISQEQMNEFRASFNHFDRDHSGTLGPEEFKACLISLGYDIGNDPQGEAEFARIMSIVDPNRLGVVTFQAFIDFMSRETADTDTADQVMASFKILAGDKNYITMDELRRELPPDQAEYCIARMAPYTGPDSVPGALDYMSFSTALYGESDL

[2] = biological target: T2, FLAG-ZYX-C (zyxin amino acids 52–572, N-terminal deletion mutant) (human) (UniProt Q15942); experiment: as above
T2 sequence: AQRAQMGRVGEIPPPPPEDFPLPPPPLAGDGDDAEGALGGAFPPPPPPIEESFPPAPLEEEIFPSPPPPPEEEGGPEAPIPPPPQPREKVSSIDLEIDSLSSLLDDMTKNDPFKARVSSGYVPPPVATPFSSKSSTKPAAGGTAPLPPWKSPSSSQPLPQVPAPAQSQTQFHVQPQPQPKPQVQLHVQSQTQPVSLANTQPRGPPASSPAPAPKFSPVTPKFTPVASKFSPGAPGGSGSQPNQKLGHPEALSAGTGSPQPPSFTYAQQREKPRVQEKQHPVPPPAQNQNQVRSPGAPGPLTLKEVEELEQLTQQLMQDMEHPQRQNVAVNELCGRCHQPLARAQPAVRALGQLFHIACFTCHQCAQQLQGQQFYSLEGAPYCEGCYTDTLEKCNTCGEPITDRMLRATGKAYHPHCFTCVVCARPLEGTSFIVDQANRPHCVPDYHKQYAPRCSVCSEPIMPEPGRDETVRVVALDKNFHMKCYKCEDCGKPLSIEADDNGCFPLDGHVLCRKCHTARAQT

[3] = biological target: T3, GST-ZYX-N (zyxin amino acids 1–51) (human) (UniProt Q15942); experiment: pull-down; GST-ZYX-N bound to Glutathione Sepharose 4B incubated with purified His-ACTN1 or His-ACTN4 for 2 h in binding buffer (lysis buffer: 40 mM Tris pH 7.5, 150 mM NaCl, 0.5% Triton X-100, 5 mM EDTA, 1 mM PMSF, plus 1.0% BSA); washed thrice; bound ACTN detected by western blot with anti-His-tag antibody; both purified
T3 sequence: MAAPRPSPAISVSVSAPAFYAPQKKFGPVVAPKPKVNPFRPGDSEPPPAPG

binding [1]	binding [2]	binding [3]	Substance
no binding	no binding	no binding	His-tagged human full length α-actinin-4 (ACTN4) (from UniProt O43707 1-911)
binds	no binding	binds	His-tagged human full length α-actinin-1 (ACTN1) (from UniProt P12814 1-892)

From article PMC4393021
